# Measurements taken from publication PMC12040169 (PLOS Biology, 2025).
# The other results are listed elsewhere or left out.
# Test system: T1, C. trachomatis L2/434/Bu expressing GFP (CTL2-GFP)
# T1 construct: L2/434/Bu GFP intracellular growth in HeLa cells
# Parameters: species or system HeLa; C. trachomatis total inclusion area by high-content imaging, normalised to DMSO
# Conditions: total inclusion area; 28.5 h, 10 µM; inhibitor
# Summary of the method: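 Following bulk GFP and resorufin fluorescence reads, infected cells were fixed, Hoechst-stained and imaged on a high-content platform. Inclusion total area and number per well served as growth proxies; nuclei counts indicated host viability. MICs were derived as for the fluorescence assay.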
row,SMILES,% of control remaining
1,COc1ccnc(C(=O)N(Cc2ccccn2)CC2CCCO2)c1 (stereo not drawn) [CBK307303],68.9603
2,COc1ccc(-c2csc(NC(=O)NS(=O)(=O)c3ccc(C)cc3)n2)cc1 [CBK296117],104.928
3,CCOc1ccccc1-c1ccccc1NC(=O)c1ccc2c(c1)ncn2C1CC1 [CBK285808],84.699
4,CCOC(=O)N1CCN(S(=O)(=O)c2cc(C(=O)O)c(Cl)cc2Cl)CC1 [CBK296975],62.463
5,Cc1cc(COC(=O)c2nn(-c3ccc(F)cc3)c3c2CCCC3)on1 [CBK295305],100.95
6,O=C(Nc1ccc(Cl)cc1)N1CCC(n2c(=O)[nH]c3ccccc32)CC1 [CBK149850],124.782
7,COc1ccc(C(c2ccccc2C)N(C)C(=O)C2CCN(C(C)=O)CC2)cn1 (stereo not drawn) [CBK060490],89.3622
8,Cc1cc(C)nc(N/C(=N\C(=S)Nc2cccc(Cl)c2C)NCc2cccnc2)n1 [CBK267254],81.7148
9,O=C(Nc1ccc(F)cc1)c1ccccc1NS(=O)(=O)c1cc(Br)c(Cl)s1 [CBK045405],66.9216
10,COC(=O)[C@H]1O[C@H](c2ccccc2)[C@@H]2C(=O)N(C)C(=O)[C@@H]21 [CBK009058],28.6706
11,COCc1cn([C@H]2CO[C@H]3[C@@H]2OC[C@@H]3NC(=O)c2ccc(OC)cc2)nn1 [CBK289494],88.9512
12,CCCN(CCC)CCc1cccc2c1CCN2C(=O)c1cc2ccccc2s1 [CBK017871C],0.9114
13,O=C(c1ccc(F)cc1)N1CCC(c2cc3cnccc3[nH]2)CC1 [CBK283445],77.2598
14,O=c1oc2ccccc2n1Cc1coc(-c2ccccc2)n1 [CBK296649],95.4948
15,O=c1c(I)coc2ccc(Cl)cc12 [CBK005364],67.5043
16,CCc1nn2c(=O)cc(CN3C(=O)COc4cccnc43)nc2s1 [CBK306599],66.8814
17,COCC1(C(=O)N2CC(=O)N(c3ccc(C)cc3)CC2C)CCC1 (stereo not drawn) [CBK307606],67.4137
18,CN(C)CCCN(Cc1cnn(-c2ccccc2)c1)Cc1ccco1 [CBK283040],69.7807
19,COC(=O)CCn1c(-c2cccnc2C)cc2cccnc21 [CBK282593],103.148
20,CC(NC(=O)c1cnc2n(c1=O)CCS2)c1ccccc1 (stereo not drawn) [CBK287372],85.4211
21,CC(C)(C)OC(=O)N1CCCC2(CCCN(C(=O)c3ccco3)C2)C1 (stereo not drawn) [CBK284463],82.8177

row,SMILES,% of control remaining
1,O=C(c1cncnc1)N1CCC2(CCN(Cc3ccccc3)CC2)C1 [CBK136782],105.548
2,CC1(C)CC(=O)c2sc(NC(=O)c3cccc(C(F)(F)F)c3)nc2C1 [CBK019941],70.3148
3,CS(=O)(=O)Nc1nccnc1OC1CCN(CCCO)CC1 [CBK084275],79.8069
4,C#CCNC(=O)[C@H]1O[C@H](CCN2CCOCC2)CC[C@@H]1O [CBK288729],92.2298
5,N#Cc1ccc(C(=O)N2C[C@@H]3C[C@H](C2)c2ccc(-c4cccc(C#N)c4)c(=O)n2C3)cc1 [CBK289187],87.7968
6,CCOC(=O)c1nc(-c2ccccc2)sc1C(C)=O [CBK067739],78.1166
7,Cc1ccc(C(=O)CC(C(=O)O)P(=O)(c2ccccc2)c2ccccc2)cc1 (stereo not drawn) [CBK265022],93.8093
8,O=C(NCCOc1ccccc1)NC(=O)C1CCNCC1 [CBK088187T],71.5657
9,Oc1ccc(-c2cccc(N3CCN(c4ccccn4)CC3)n2)cc1 [CBK037028],95.5308
10,CCNc1cncc(-c2cncc(OC)c2)n1 [CBK065366],74.5871
11,OCCCn1cc(CN2CCC(CO)C2)c2ccccc21 (stereo not drawn) [CBK282114],105.637
12,O=C(Nc1cccc(O)c1)c1ccc2c(c1)C(=O)N(Cc1ccco1)C2=O [CBK268640],89.1774
13,c1ccc(N2CCN(c3cncc(-c4ccc5ccccc5c4)n3)CC2)nc1 [CBK066104],85.2045
14,CN(C)CCNCCOc1cccc([N+](=O)[O-])c1 [CBK267803C],104.486
15,O=C(OCc1ccc([N+](=O)[O-])cc1)C1CCN(S(=O)(=O)c2cccc3cccnc23)CC1 [CBK264430],129.146
16,O=C(Nc1cccc(N2CCNCC2)c1)c1ccnc2ccccc12 [CBK029416T],93.7397
17,Cn1c(SCCOc2ccccc2Cl)nnc1-c1ccncc1 [CBK265969],127.632
18,Cc1ccc(-n2cccn2)cc1S(=O)(=O)N1CCNCC1C (stereo not drawn) [CBK307344],118.373
19,COc1ccccc1C1(NC(=O)Cn2nc(C)cc2C)CCCC1 [CBK283573],76.252
20,COc1ccc2cc(C(=O)N3CCC(c4ccncc4)CC3)[nH]c2c1 [CBK283799],47.459
21,CCc1nn(CC(=O)N2CCCC2)c(=O)c2cc3ccsc3n12 [CBK284120],79.3626

row,SMILES,% of control remaining
1,O=C(Nc1nnc(C2CCCCC2)s1)c1ccccc1I [CBK057918],51.6491
2,NS(=O)(=O)c1ccc(CCNCC2CCCCC2)cc1 [CBK288467],63.4313
3,CC(C)CNC(=O)N1CCN(Cc2ccccc2)CC1 [CBK155644],103.925
4,CCOc1cc(/C=C2\SC(=N)NC2=O)ccc1OC(=O)c1cccs1 [CBK265510],93.186
5,Cc1cc(C)n(C(C)Cn2cncc2-c2cn(C)nc2C)n1 (stereo not drawn) [CBK281792],129.914
6,O=C(COc1cccc(Cl)c1)NNC(=S)Nc1ccccc1 [CBK267180],116.275
7,COc1ccc(-c2cc(C(=O)N[C@@H](C)c3ccccc3)cnc2-c2cccc(C)c2)cc1 [CBK036635],94.6021
8,Cc1ccc(CNC(=O)c2cnoc2-c2ccc(Br)cc2)cc1F [CBK154896],87.5596
9,Cc1cccc(-c2csc3c(=O)[nH]c(N4CCC5(CC4)OCCO5)nc23)c1 [CBK291142],80.5034
10,Cc1ccc2[nH]c(CN3CCC(O)C3)cc(=O)c2c1 (stereo not drawn) [CBK307690],59.7429
11,O=C(NCC1CCCN1)c1cc2cc(Cl)ccc2[nH]1 (stereo not drawn) [CBK115917C],86.7266
12,CCNc1cncc(-c2cc(OC)c(OC)c(OC)c2)n1 [CBK065336],76.0902
13,Cc1cc(C)nc(N(C#N)CC(=O)c2ccc(Br)cc2)n1 [CBK266562],131.403
14,COc1cc(/C=C2\C(=O)NN(c3ccccc3)C2=O)ccc1OCCOc1cc(C)ccc1C [CBK263947],95.1195
15,CCOC(=O)/C(=N/Nc1cccc(C)c1)c1csc(N)n1 [CBK261059],67.4905
16,Cc1cccc(CN(CCN)C(=O)NC2C[C@H]2c2ccccc2)n1 (stereo partly drawn) [CBK046220C],93.7956
17,CCOc1ccc(NC(=O)CCc2ncc(C(C)(C)C)o2)c(C)c1 [CBK306021],46.1809
18,CCCN1CC(NS(=O)(=O)c2cc(OC)c(C)cc2OC)CC1=O (stereo not drawn) [CBK307036],57.0746
19,Cc1ccc(C)c(CC(=O)N(C)C2CCN(C3CCOCC3)CC2)c1 [CBK304964],51.0156
20,O=C1CC(c2noc(-c3ccncc3)n2)CN1c1ccccc1 (stereo not drawn) [CBK288043],107.053
21,O=C(CN(c1ccccc1F)S(=O)(=O)c1ccccc1)Nc1ccccc1C(=O)O [CBK263999],84.6349

row,SMILES,% of control remaining
1,C/C(=N\NC(=O)C1CC1)c1ccc(C)cc1 [CBK016047],87.6402
2,O=[N+]([O-])c1cc(-c2nnc(-c3ccccc3)o2)ccc1-n1c(-c2ccccc2)nnc1-c1ccccc1 [CBK267341],110.854
3,COc1ccc(/C(C)=N\NC(=O)c2cccc(Br)c2)cc1 [CBK261612],87.9906
4,O=C(Cc1ccc(Br)cc1)N1CCC(Cc2ccccc2)CC1 [CBK058493],58.3676
5,CC(NC(=O)c1cnc(-c2cccc(C(F)(F)F)c2)c(-c2ccncc2)c1)c1ccc(F)cc1 (stereo not drawn) [CBK037556],162.747
6,N#Cc1ccccc1NC(=O)C(CC(=O)O)NCc1ccccc1 (stereo not drawn) [CBK286907],86.6931
7,CCN(CCO)C(=O)NC1CCCc2c1cnn2Cc1ccccc1 (stereo not drawn) [CBK305277],80.5623
8,CC1CN(C(=O)c2ccccc2-c2ccccc2C(=O)O)CC(C)O1 (stereo not drawn) [CBK286577],73.3505
9,Cc1nc2n(c(=O)c1CCSc1ccccc1C(=O)O)CCCC2 [CBK286818],106.462
10,CCCc1[nH]nc(O)c1Cc1ccc(C(C)C)cc1 [CBK075033],75.6994
11,CCC(NC(=O)CCc1cc2n(n1)CCNC2)c1cn2cccnc2n1 (stereo not drawn) [CBK307090],37.6305
12,Cc1cc(C(=O)Nc2nc(Cc3n[nH]c(=S)n3C)cs2)sc1C [CBK296687],100.133
13,O=C(Nc1ccc(C(F)(F)F)cc1)c1cc(Br)cnc1NCc1cccnc1 [CBK076419],74.8156
14,COc1ccc([C@@]23CC[C@@H](NC(=O)N(C)c4ccc(Cl)cc4)C[C@@H]2N(C)CC3)cc1OC [CBK045682T],80.3857
15,CN(C)c1cccc(C(=O)Nc2ccccc2N2CCOCC2)c1 [CBK295184],79.7012
16,COc1ccc(CCOc2cnc(-c3ccccc3)c(N)n2)cc1 [CBK145065],65.7526
17,O=C(NC1CCN(c2ncccn2)CC1)c1cccnc1O [CBK297739],37.0753
18,N#Cc1ccc(C(=O)N2Cc3nc[nH]c3C[C@H]2c2nc(-c3ccncc3)no2)cc1 [CBK288963],107.106
